In PubChem BioAssay AID493208 (National Center for Advancing Translational Sciences (NCATS), 2011):
Among all 44,000 compounds or so, about 340 (0.77%) were called active. About 5% were inconclusive and are not listed. Calls come from the whole dose curve; as a rule, active = well fitted inhibition curve with a large enough effect; inconclusive = small, poorly fitted or top-dose-only effect; inactive = flat fitted curve, though single readings scatter. The list shows a part of the results.

experiment: Acumen qHTS Assay for Inhibitors of the mTORC1 Signaling Pathway in MEF (Tsc2-/-, p53-/-) Cells: Sytravon; conditions: phospho-rpS6 immunofluorescence/PI, 24 h; series mostly up to 38.3 µM; activity change, negative = inhibition: at the top concentration;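 note: plate controls were DMSO for no effect and rapamycin for full effect; nearly all actives have a fitted effect of over 50% in size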
Summary of the method: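 Readout is phospho-S6 Alexa 488 signal normalized to PI per well, reported as % active cells with thresholds set from rapamycin (7.5 nM) and DMSO controls. Cells: Tsc2-/-, p53-/- MEFs, 24 hrs compound at 37 C; PI cell number serves as viability.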

Activity change, negative = inhibition, inactive:
CCN(CC)c1ccc(C(=O)NCc2nc3cccnc3n2Cc2ccc(C)cc2)cc1 -2.18%
Cc1ccc(C2N=C(N)Nc3nc4ccccc4n32)cc1 (stereo not given) 0.162%
Cc1cccc(-c2nc3c4c(-c5ccccc5)c(-c5ccccc5)oc4ncn3n2)c1 0.231%
Cc1cccc(NC(=O)Cn2cc(S(=O)(=O)N3CCCC3)c(S(=O)(=O)N3CCCC3)c2)c1C -12.1%
COc1ccc(NC(=O)c2c(NCc3cccc(F)c3)sc3c2CCC3)c(OC)c1 6.77%
CSCCC(NS(=O)(=O)c1ccc2c(c1)oc(=O)n2C)C(=O)Nc1ccc(F)c(Cl)c1 (stereo not given) 0.217%
Cc1cccc(NC(=O)c2cnc3sc(N4CCCC4)nn3c2=O)c1C -2.34%
COc1cccc2sc(N(Cc3cccnc3)C(=O)c3ccco3)nc12 1.07%
COc1ccc(OC)c(CNC(=O)c2c(C)oc3ncn(CC(C)C)c(=O)c23)c1 1.33%
CCCCOc1ccc(C2=NC(c3cccs3)=Nc3ccc(OC)cc3N2)cc1 -21.5%
O=C(NCC(c1cccnc1)N1CCN(c2ccccc2F)CC1)c1ccc(F)cc1 (stereo not given) 2.02%
Cc1cc(C)cc(NC(=O)Cc2csc(COc3cccc(C)c3)n2)c1 -17.6%
COc1ccc(C)cc1NC(=O)C(=O)NCCc1sc(-c2cccc(C)c2)nc1C 0.363%
Cc1ccccc1C(=O)Nc1ccc(S(=O)(=O)N2CCC(c3nc4ccccc4s3)CC2)cc1 4.27%
CCOC(=O)c1ccc(NC(=O)CCCc2nc(-c3cc(OC)c(OC)c(OC)c3)no2)cc1 -8.04%
CCCNC(=O)C1CCC(Cn2c(=O)c3sccc3n(CC(=O)NCc3ccccc3)c2=O)CC1 (stereo not given) -14.6%
Cc1nn(CCCC(=O)NCc2ccccc2Br)c(=O)c2c1sc1ccccc12 -4.07%
CCOc1ccc(S(=O)(=O)N(CC(=O)Nc2ccc(OC)cc2OC)c2ccccc2)cc1 0.286%
O=C(NCc1ccccc1F)C1CCCN(C(=O)N2CCOc3ccccc32)C1 (stereo not given) -1.17%
O=C(CN1C=NS(=O)(=O)c2ccccc21)Nc1ccccc1F 1.3%
COc1ccc(-c2nc3ccccc3o2)cc1NC(=O)COc1ccc(C)c(C)c1 -0.881%
COc1ccc(OC)c(CNS(=O)(=O)c2ccc3c(c2)oc(=O)n3C)c1 -0.414%
COc1ccc(S(=O)(=O)N(CC(=O)N2CCc3ccccc3C2)c2ccc(C)cc2)cc1 -0.0228%
Cc1cccc2nc(Cn3c(=O)n(-c4ccc(Cl)cc4)c(=O)c4c5c(sc43)CCC5)cc(=O)n12 1.1%
CCOc1ccc(C(=O)Nc2cccc(C(=O)OCc3cc(=O)n4cc(C)sc4n3)c2)cc1 0%
COc1ccc(Br)cc1CNC(=O)c1cc(=O)[nH]c2ccc(S(=O)(=O)N3CCCCC3C)cc12 (stereo not given) -2.41%
Cc1nn(C(C)C(=O)N2CCN(c3ccc(F)cc3)CC2)c(=O)c2c1sc1ccccc12 (stereo not given) 0.828%
CCn1cc(C(=O)NCCc2ccccc2)c(=O)c2cc(S(=O)(=O)N3CCCCCC3)ccc21 -0.217%
COc1ccc(N2C(=O)CS(=O)(=O)C23C(=O)N(Cc2ccccc2F)c2ccccc23)cc1Cl (stereo not given) -1.29%
CC(=O)N1c2ccc(S(=O)(=O)N3CCC(C(=O)Nc4cccc(Cl)c4C)CC3)cc2CC1C (stereo not given) -6.63%
Cc1cccc(Cn2cc(S(=O)(=O)c3ccccc3)c(=O)c3cc(F)c(N4CCOCC4)cc32)c1 -13%
Cc1cccc(C)c1NC(=O)C1CCCN1S(=O)(=O)c1ccccc1 (stereo not given) -0.76%
Cc1ccc2c(CC(=O)Nc3ccc(S(=O)(=O)N4CCCCC4C)cc3)coc2c1C (stereo not given) 4.86%
CCc1ccc2ncc3c(-c4ccc(F)cc4)nn(CC(=O)NC4CCCCC4)c3c2c1 -0.642%
CCOC(=O)Cn1c(=O)n(-c2cccc(Cl)c2)c2nc(-c3ccccc3Cl)nc(C(N)=O)c21 -1.17%
Cc1ccccc1OC(=O)c1nc(SCc2ccccc2F)ncc1Cl 0.931%
CN(C)c1ccc(CNC(=O)Cc2ccc(NC(=O)N3CCCCc4ccccc43)cc2)cc1 -14.5%
Cc1ccc(N2CCN(S(=O)(=O)c3nnc(NC(=O)c4ccccc4)s3)CC2)cc1 5.38%
Cc1c(C)n(Cc2ccccc2)c2ccc(C(=O)NCC(C)c3ccccc3)cc12 (stereo not given) -2.98%
COc1ccc(N2CCN(C(=O)c3cc4c(=O)oc5ccc(C)cc5c4s3)CC2)cc1 -6.49%
CCOc1ccc(CCNC(=O)c2ccc(-n3c(C)cc4c3CCCC4)cc2)cc1OCC -4.17%
CCCCNc1nc2c(S(=O)(=O)c3ccc(C)cc3)nnn2c2ccsc12 -5.44%
CCOc1ccc(N2CC(NC(=O)c3ccc4c(c3)OCO4)CC2=O)cc1 (stereo not given) 0.848%
Cc1cc(C)n(CCC(=O)Nc2ccc(Cl)cc2)n1 -0.463%
O=C(Nc1ccccc1C(=O)OCc1cc(=O)n2nc(C3CC3)sc2n1)c1ccc(Cl)cc1 2.92%
Cc1ccc(C)c(N2CCN(c3nc4ccc(C)cc4nc3-n3nc(C)cc3C)CC2)c1 -11.5%
CCOCCc1nnc(NC(=O)C(=O)c2cc(C)n(-c3ccc(C)c(C)c3)c2C)s1 -17.9%
O=C(Cn1cnc2nc3c(cc2c1=O)CCCC3)Nc1ccc(F)cc1Cl 1.46%
O=C(NCC(c1cccs1)S(=O)(=O)c1cccs1)c1ccc(F)c(F)c1 (stereo not given) 0.749%
COc1ccccc1CNC(=O)CSc1nc(-c2ccc(OC)c(OC)c2)cc(C(F)(F)F)n1 -3.36%
COC(=O)c1sccc1S(=O)(=O)N(CC(=O)Nc1cc(C)ccc1C)c1ccc(C)c(C)c1 -9.05%
Cc1ccc(N2CC(NC(=O)c3ccc(S(=O)(=O)N(C)C)cc3)CC2=O)cc1C (stereo not given) 0.108%
CCC(C)NC(=O)c1ccc2c(c1)sc1nc(-c3ccc(OC)cc3)cn12 (stereo not given) -2.23%
O=C(CSc1nc2c([nH]c3ccccc32)c(=O)n1-c1cccc(Cl)c1)N1CCCC1 0.446%
CCc1ccc2oc(-c3ccc(C)c(NC(=O)c4cc([N+](=O)[O-])ccc4N4CCOCC4)c3)nc2c1 -5.09%
CCCCc1ccc(-n2nc3ccc(NC(=O)c4cc5ccccc5o4)cc3n2)cc1 12.7%
COc1ccc(C(=O)NCCSc2c[nH]c3ccccc23)cc1OC -2.19%
Clc1ccc(CSc2ccc(-c3cccs3)nn2)cc1 -2.48%
COc1ccc(-n2c(=O)c3c4c(sc3n(Cc3ccc(F)cc3)c2=O)CN(C(C)=O)CC4)c(OC)c1 -4.6%
CCC(CC)C(=O)N1c2ccccc2C(C)(c2ccccc2)CC1(C)C (stereo not given) -13.1%
COC(=O)CN1C(=O)CSc2ccc(S(=O)(=O)Nc3ccc(F)c(Cl)c3)cc21 2.42%
CSc1ncc(C(=O)Nc2cc(C)cc(C)c2)c(-c2ccccc2)n1 -4.76%
CC(=O)N1CCc2c(sc3c2c(=O)n(Cc2ccccc2)c(=O)n3Cc2ccc(Cl)cc2)C1 -6.49%
CN1CCN(C(CNC(=O)c2ccc(F)cc2)c2ccc3c(c2)OCO3)CC1 (stereo not given) -0.102%
COc1ccc(OC)c(CCNC(=O)c2c(C)oc3ncn(CC(C)C)c(=O)c23)c1 4.36%
Cc1cc(C)c(Cn2c(=O)n(CCC(=O)NCCc3ccccc3)c(=O)c3ccccc32)c(C)c1 12.2%
CCOC(=O)Cn1c(=O)oc2cc(S(=O)(=O)N3CCN(c4cccc(Cl)c4)CC3)ccc21 -5.07%
CCOCCCn1c(SCC(=O)Nc2ccccc2CC)nc2ccccc2c1=O 3.75%
O=C(O)c1sc(Nc2ccccc2)nc1-c1ccccc1 -10.1%
Cc1ccc(NC(=O)c2cccc3c(=O)c4c([nH]c23)CCCC4)c(C)c1 0.128%
CCN(CC)c1ccc(C(=O)N2CCc3c([nH]c4ccccc34)C2c2ccc(F)cc2)cc1 (stereo not given) -0.74%
Cc1ccc(NC(=O)Nc2nnc(SCC(=O)N(C(C)C)C(C)C)s2)cc1 -0.466%
COc1cccc(CNC(=O)c2c(C)nn(-c3ccc(F)cc3)c2-n2cccc2)c1 -6.95%
CCOC(=O)c1sc2ccccc2c1S(=O)(=O)Nc1ccc(OC)c(Cl)c1 -2.53%
CCOc1ccc(NC(=O)Nc2nnc(N3CCCCC3C)s2)cc1 (stereo not given) -3.74%
O=C(COc1ccccc1F)Nc1nnc(SCc2cc(=O)n3ccccc3n2)s1 5.72%
Cc1ccccc1Cn1nnc2sc3c(c2c1=O)CCCC3 9.01%
CCOC(=O)c1c(NC(=O)Nc2ccc(F)cc2)sc(C(=O)N(C)C)c1C -1.29%
COc1ccc(CCNC(=O)c2ccc3c(c2)N(Cc2ccccc2Cl)C(=O)c2ccccc2S3)cc1OC 2.5%
Cn1cc(CCCC(=O)NCc2cccc(Br)c2)c2ccccc21 3.32%
CCc1nc2ccc(C(=O)NCc3ccccc3C)cc2nc1CC -1.5%
O=c1c(NCc2cccs2)nccn1-c1ccccc1 -3.99%
COc1ccc(-n2cc(-c3ccccc3)c3c(N4CCCC(C)C4)ncnc32)cc1 (stereo not given) 5.44%
COc1ccc(-c2cccc(NS(=O)(=O)c3cc(C(F)(F)F)ccc3Cl)c2)nn1 -1.98%
O=C(CS(=O)(=O)c1cccc2nsnc12)NCc1ccccc1Cl -6.03%
Cc1ccc(CN2c3ccccc3-c3nc(SCC(=O)NCc4ccccc4)ncc3S2(=O)=O)cc1 1.41%
COc1ccc(C(=O)NCCc2csc(-c3ccc(Cl)cc3)n2)cc1 2.58%
CCC(=O)C1=C(c2ccccc2)N(C(=O)CC)n2c(nnc2-c2ccccc2)S1 -8.43%
Cc1ccc(N(CC(=O)Nc2ccc(F)cc2F)S(=O)(=O)c2cccs2)cc1 4.18%
Cc1ccc(S(=O)(=O)NCCc2nnc3ccc(SCc4ccccc4F)nn23)cc1 -7.64%
CCCCCCc1cc2cc(-c3nnc(-c4cccc(Cl)c4)o3)c(=O)oc2cc1O -11.4%
Cc1ccc(NC(=O)c2oc3ccc(S(=O)(=O)N4CCCCC4)cc3c2C)c(C)c1 -21.1%
Cc1cc(C)c(NC(=O)c2c(C)oc3c2C2=NCCN2C=N3)c(C)c1 -13.8%
Cc1cc(C)c(NC(=O)CN2C(=O)C3(SCC(=O)N3c3ccc(F)cc3)c3ccccc32)c(C)c1 (stereo not given) -1.67%
Cc1cccc(N2CCN(C(=O)C(C)n3nc(C)n4c(cc5occc54)c3=O)CC2)c1C (stereo not given) -11%
